Screen size: about 150,000 compounds; about 540 (0.36%) showed an effect of 50% or more. The list shows a part of the results.

From ChEMBL document CHEMBL4888484, “Replenishing the malaria drug discovery pipeline: Screening and hit evaluation of the MMV Hit Generation Library 1 (HGL1) against asexual blood stage Plasmodium falciparum ,using a nano luciferase reporter read-out” (2022) come the findings set out here.

The test relates to Plasmodium falciparum. In words: Primary screen in NF54 nanoGlo assay, in single point, at 2uM, 72h; a lower Z score goes with more inhibition. In kind it is functional, Erythrocyte. Conditions: timepoint 72 hour.
As a reminder, the % Inhibition is the change of the read-out against control, counted positive when it falls. As for `CCCCN1CCN([C@@H](C(=O)NC2CCCCCC2)c2ccccc2)C(=O)C1=O`, the “% Inhibition” value is -5% and the Z score stood at 0.83.
Turning to `N#CCCOC1(C#CC#CC2(OCCC#N)CCCCC2)CCCCC1`, the “% Inhibition” value is listed as -3% and the Z score is on record as 0.46.
For `Cn1cnc(C2=NN(CC3CC3)C(=O)C2)c1` the same measures were -1% and 0.24.
`Cc1ccc(C)c(NC(=O)CN2CCCN(c3ccc(C(F)(F)F)cn3)CC2)c1`: the “% Inhibition” value is -9% and the Z score came out at 1.72.
With `C[C@H](O)CN(C1CCCCC1)S(=O)(=O)C1CC1`, the “% Inhibition” value was -8% and the Z score is on record as 0.77.
With `CCc1ncc2c(n1)CN(C(=O)c1ccc(Cl)cc1OC)C2`, the “% Inhibition” value is -4% and the Z score amounted to 0.68.
In the case of `Cc1cc(O[C@H]2CCN(C)C2=O)ccc1NC(=O)c1ccoc1`, the “% Inhibition” value was -11% and the Z score is reported as 0.96.
As to `Cc1ccc(CCNS(=O)(=O)c2ccc3c(c2)C(C)(C)C(=O)N3C)cc1`, the “% Inhibition” value is given as -8% and the Z score is on record as 1.44.
With `CCc1csc(CNC(=O)c2sc(OC)nc2C)n1`, the “% Inhibition” value is given as -2% and the Z score is on record as 0.36.
`Cc1cc(OC2CN(C(=O)c3cc(C)oc3C)C2)n2ncnc2n1`: the “% Inhibition” value is recorded as 16% and the Z score was -2.05.
In the same order, the values of `Fc1ccc(F)c(-c2cncc(CN3CCOCC3)c2)c1` are -12% and 1.46.
For `CCn1nccc1[C@H](C)NC(=O)c1cc(-c2cccc(OC)c2)nc2c1c(C)nn2C` the same measures were 25% and -2.79.
As to `Cn1nc(-c2ccc(-c3cn[nH]c3)cc2)nc1N1CCCCC1`, the “% Inhibition” value was -4% and the Z score is given as 0.64.
Turning to `CC(=O)N1CC(C)(C)c2cc(S(=O)(=O)N[C@H]3CCCc4ccccc43)ccc21`, the “% Inhibition” value was -1% and the Z score came to 0.13.
Turning to `O=S(=O)(Nc1cccc2cccnc12)N1CCOCC1`, the “% Inhibition” value is recorded as -4% and the Z score worked out at 0.44.
`COc1ccc2c(c1)CN(C(=O)C1(C#N)CCCCC1)CC2`: the “% Inhibition” value is given as -9% and the Z score is on record as 0.85.
On to `CCn1cc(NS(=O)(=O)Cc2ccc(C)c(F)c2)c(C(N)=O)n1`, for which the “% Inhibition” value was -9% and the Z score is 1.26.
As to `COCC1(NC(=O)CCC(=O)Nc2nncs2)CCCC1`, the “% Inhibition” value is -12% and the Z score came out at 1.59.
In the same order, the values of `O=C(NCc1nc2ncccn2n1)N[C@H]1CCO[C@@H]1c1ccnn1CC1CC1` are 6% and -1.16.
In the case of `CC(C)NC(=O)c1ccnc(-c2ccccc2N(C)C)c1`, the “% Inhibition” value is -2% and the Z score is 0.32.
In the case of `Cc1ncc(-c2c(-c3ccccc3)ncn2Cc2noc(C3CC3)n2)s1`, the “% Inhibition” value is on record as -11% and the Z score is listed as 1.42.
Regarding `C=CCOc1cccc2c1cc(C(=O)N1CCN(Cc3ccccc3)CC1)n2Cc1ccccc1`, the “% Inhibition” value is -11% and the Z score is reported as 1.2.
With `COc1ccc(CN(Cc2ccco2)C(=O)NC(C)C)cc1OS(C)(=O)=O`, the “% Inhibition” value was -5% and the Z score is 0.58.
In the case of `Cn1cccc(C(=O)Nc2cnoc2)c1=O`, the “% Inhibition” value is listed as -7% and the Z score is 1.16.
For the compound `O=S(=O)(c1ccc(-c2cc(C(F)(F)F)n[nH]2)s1)N1CCc2ccccc2C1`, the “% Inhibition” value is given as -2% and the Z score is on record as 0.3.
For `O=C1CC[C@@]2(CCCO2)CCN1Cc1ccc(C(F)(F)F)cc1`, the “% Inhibition” value is given as -3% and the Z score came out at 0.47.
`O=C(N[C@@H]1COCC[C@@H]1OCc1cscn1)c1ccn2cnnc2c1`: the “% Inhibition” value is 5% and the Z score is on record as -0.59.
With `O=C1CC[C@H](NC2(c3cccc(Cl)c3)CC2)CCN1`, the “% Inhibition” value is on record as -3% and the Z score is 0.54.
Turning to `OC[C@H]1CCc2nnc(C(F)F)n2C1`, the “% Inhibition” value is reported as 36% and the Z score is -1.05.
Turning to `CCCS(=O)(=O)c1c(S(=O)(=O)CCC)c2cc(-c3ccncc3)ccn2c1C(=O)c1ccc(C)cc1`, the “% Inhibition” value is listed as -1% and the Z score is 0.11.
Take `Cc1nc2c(F)cccc2c2c1COC2`: the “% Inhibition” value was -10% and the Z score was found to be 1.87.
Regarding `CCC(C)N1C(=O)[C@H]2C(C(=O)Nc3ccc(OC)cc3)[C@H]3C=C[C@@]2(O3)C1C(=O)NC1CCCCC1` (stereo not given in full), the “% Inhibition” value is on record as -6% and the Z score is on record as 0.91.
In the case of `CC(C)CCNC(=O)[C@H]1CCCN(S(=O)(=O)c2ccc3c(ccn3C)c2)C1`, the “% Inhibition” value was -15% and the Z score came out at 2.73.
For `CCOc1ccc(-c2cc(C(=O)NCCc3ccccc3)c3c(-c4ccccc4)[nH]nc3n2)cc1`, the “% Inhibition” value is -16% and the Z score is reported as 2.1.
For the compound `Cc1nn(CC(F)F)cc1-c1nc([C@H]2CCC(=O)NC2)no1`, the “% Inhibition” value is 0% and the Z score was -0.04.
Take `c1nc(N2CCCC2)c2nc3n(c2n1)CCCCC3`: the “% Inhibition” value is on record as -15% and the Z score came to 2.31.
For the compound `CC(O)C1CN(c2cc(NC3CC3)ncn2)CCO1` (stereo not given), the “% Inhibition” value was -13% and the Z score stood at 1.42.
For `CC(C)CCC(=O)OCc1ccccc1N(C)C` the same measures were -8% and 0.71.
For `Cc1nc(COc2ccc(C(C)(C)C)cc2)nn1C`, the “% Inhibition” value is -12% and the Z score is reported as 2.25.
In the case of `O=C1NC2CCCCC2N(C(=O)Nc2ccccc2)C1CC(=O)N1CCN(c2ccccc2)CC1` (stereo not given), the “% Inhibition” value is 0% and the Z score was 0.
Regarding `CCc1nc2n(n1)CCCC2NC1CCN(C(C)C)C1=O` (stereo not given), the “% Inhibition” value is given as 0% and the Z score came to 0.01.
For `Cn1nccc1C(=O)N1CCC(Cc2ccc(CCC(=O)NCC3CC3)cc2)CC1` the same measures were -7% and 0.97.
Take `COC(=O)Nc1c(Br)cnc(N2CCCCCC2)c1Br`: the “% Inhibition” value is on record as -10% and the Z score is on record as 1.17.
Consider `Cc1ccc(-c2noc(Cn3c(=O)[nH]c4ccccc4c3=O)n2)cc1`, for which the “% Inhibition” value was -5% and the Z score turned out to be 0.56.
On to `CCOC1CCCN(C(=O)C(C2CC2)N2CCCC2)C1` (stereo not given), for which the “% Inhibition” value came out at 3% and the Z score is listed as -0.5.
On to `C=CCN(CC#Cc1ccccc1)Cc1c(C)nn(C)c1Cl`, for which the “% Inhibition” value is -5% and the Z score stood at 1.03.
In the same order, the values of `O=C(CN1CCS(=O)(=O)CC1)OCc1ccccc1Cl` are -13% and 1.15.
For `CS(=O)(=O)N1CCC[C@H](CN(CC#N)c2ccccc2)C1` the same measures were -5% and 0.65.
With `O=C(NC[C@H]1CCCO1)c1cc(-c2cccc(Cl)c2)[nH]n1`, the “% Inhibition” value turned out to be 6% and the Z score was -0.88.
Consider `Cc1nc(CC[C@H]2CCN(C(=O)c3ccccc3)C2)no1`, for which the “% Inhibition” value is on record as -2% and the Z score was found to be 0.27.
In the same order, the values of `CC(C)[C@H](Cc1ccc(F)cc1)NCC(=O)Nc1cccnc1` are -8% and 1.08.
As to `COc1ccccc1N1CCN(C(=O)c2ccc(C)c(NC(=O)c3ccccc3)c2)CC1`, the “% Inhibition” value is -6% and the Z score is reported as 0.88.
In the case of `Cc1nn(C)c(C)c1CCC(=O)N(C)[C@@H](C)c1cncs1`, the “% Inhibition” value is reported as -13% and the Z score was 1.47.
On to `O=C(c1ncc(F)cc1F)N1CC[C@H]1c1ccccc1F`, for which the “% Inhibition” value was -8% and the Z score is given as 0.94.
For `Cc1cccc(CN2CCC[C@@]3(CCN(Cc4cccc(C)n4)C3)C2=O)c1`, the “% Inhibition” value is recorded as -8% and the Z score amounted to 1.03.
